Assay results reported in PubChem BioAssay AID1347165 (National Center for Advancing Translational Sciences (NCATS), 2019).
Screen size: about 220,000 compounds; about 5,700 (2.6%) were called active. The inconclusive results got no clear call from the source; some entries with a clear call stand among them for comparison. Calls come from the whole dose curve; as a rule, active = well fitted inhibition curve with a large enough effect; inconclusive = small, poorly fitted or top-dose-only effect; inactive = no such curve, though single readings can be large or run the other way. Potencies beside an inconclusive call are fits to weak or partial responses and may not hold up.

What follows are compounds tested against Lysine-specific demethylase 5B (Homo sapiens) (UniProt Q9UGL1) (assay: Primary screen for KDM5B Histone Demethylases FDH-coupled qHTS). Conditions: FDH-coupled NADH fluorescence (FDH is formaldehyde dehydrogenase); activity change, negative = inhibition: at 57.7 µM (top of the series) unless noted.
How it was run: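 Compound dilutions met 200 nM (final) KDM5BΔAP for 10 min at room temperature before substrate addition. The substrate mix held 12.5 µM H3K4me3 with cofactors 25 µM α-ketoglutarate and 50 µM Fe²⁺. NADH signal gain over 30 min defined activity.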
Note: nearly all actives have a fitted effect of over 70% in size.
Potency is the fitted concentration of half-maximal effect; tags give direction and shape of the fitted curve.
Throughout, for activity change, negative = inhibition: 0% is about no effect.

UniProt Q9UGL1, sequence (Q9UGL1 whole entry, looked up): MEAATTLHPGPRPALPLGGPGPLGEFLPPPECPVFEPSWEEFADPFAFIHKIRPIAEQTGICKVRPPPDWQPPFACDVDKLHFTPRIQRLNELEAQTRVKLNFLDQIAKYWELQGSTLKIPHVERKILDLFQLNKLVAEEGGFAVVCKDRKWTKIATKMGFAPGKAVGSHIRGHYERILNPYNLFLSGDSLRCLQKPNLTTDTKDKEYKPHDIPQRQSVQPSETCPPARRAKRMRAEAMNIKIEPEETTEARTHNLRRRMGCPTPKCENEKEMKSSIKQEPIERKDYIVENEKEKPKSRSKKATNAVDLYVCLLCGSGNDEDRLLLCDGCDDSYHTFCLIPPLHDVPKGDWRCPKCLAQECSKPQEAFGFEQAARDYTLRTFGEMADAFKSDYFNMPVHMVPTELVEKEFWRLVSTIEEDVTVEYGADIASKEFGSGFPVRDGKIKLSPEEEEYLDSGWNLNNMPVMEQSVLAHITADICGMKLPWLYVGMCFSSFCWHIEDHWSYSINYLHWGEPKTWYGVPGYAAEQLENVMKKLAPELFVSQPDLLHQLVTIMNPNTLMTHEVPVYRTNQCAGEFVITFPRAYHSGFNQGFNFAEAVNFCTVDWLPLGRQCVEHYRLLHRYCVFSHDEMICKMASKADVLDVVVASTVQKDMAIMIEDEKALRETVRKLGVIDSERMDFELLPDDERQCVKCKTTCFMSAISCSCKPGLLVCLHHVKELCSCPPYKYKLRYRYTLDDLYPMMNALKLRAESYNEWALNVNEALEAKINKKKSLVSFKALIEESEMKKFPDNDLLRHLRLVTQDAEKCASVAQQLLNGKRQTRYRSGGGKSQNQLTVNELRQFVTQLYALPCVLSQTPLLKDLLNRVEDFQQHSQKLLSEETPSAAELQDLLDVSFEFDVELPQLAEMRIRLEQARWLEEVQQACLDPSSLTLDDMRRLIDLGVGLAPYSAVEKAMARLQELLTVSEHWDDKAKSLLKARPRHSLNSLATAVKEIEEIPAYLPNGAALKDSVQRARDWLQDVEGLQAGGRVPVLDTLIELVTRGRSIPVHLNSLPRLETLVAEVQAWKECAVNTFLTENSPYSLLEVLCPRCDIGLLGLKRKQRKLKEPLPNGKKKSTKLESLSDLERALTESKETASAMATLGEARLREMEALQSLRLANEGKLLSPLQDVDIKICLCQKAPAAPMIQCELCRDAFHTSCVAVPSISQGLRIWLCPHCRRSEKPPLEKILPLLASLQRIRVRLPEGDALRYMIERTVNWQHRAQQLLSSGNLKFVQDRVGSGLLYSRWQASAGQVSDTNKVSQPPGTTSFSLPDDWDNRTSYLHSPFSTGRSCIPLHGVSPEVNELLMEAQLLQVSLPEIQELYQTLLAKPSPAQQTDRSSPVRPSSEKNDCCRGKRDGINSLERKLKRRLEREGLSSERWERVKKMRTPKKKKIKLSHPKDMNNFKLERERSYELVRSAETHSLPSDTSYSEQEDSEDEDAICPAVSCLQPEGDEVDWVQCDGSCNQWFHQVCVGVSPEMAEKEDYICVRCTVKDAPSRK

SMILES | Potency | activity change, negative = inhibition
Cc1ccc(-c2cc3c(=O)n(CCNC(=O)c4cccc(N(C)C)c4)ccn3n2)cc1C | active: 17.8 µM | 
CCCn1c(-c2ccc(C(=O)OC)cc2)nc2c1c(=O)[nH]c(=O)n2Cc1ccccc1 | inconclusive: 28.2 µM [inhibitor, partial curve, poor fit] | 
O=C(c1ccc2c(c1)CCN2S(=O)(=O)c1ccc(Br)cc1)N1CCCC1 | inactive | 
Cc1nc(Cn2ccnc2-c2cn(C3CCNCC3)nn2)cs1 | inconclusive: 3.55 µM [inhibitor, full curve] | 
CNC(C)c1cnccn1 (stereo not drawn) | inconclusive: 44.7 µM [inhibitor, partial curve, poor fit] | 
C(=C\c1ccccc1)/CN(C/C=C/c1ccccc1)CCN1CCOCC1 | inconclusive: 14.1 µM [inhibitor, partial curve, poor fit] | 
Cc1ccc(-c2nc3nc(CNc4ccc(C)c(Cl)c4)cc(=O)n3[nH]2)cc1 | inactive | 
COc1ccc(Nc2cc(C(=O)NC3CCCC3)c3ccccc3n2)c(OC)c1 | inconclusive: 39.8 µM [inhibitor, single point] | 
CCNC(=O)Cn1c(-c2cccs2)cc2ccccc21 | inconclusive: 28.2 µM [inhibitor, partial curve, poor fit] | 
CCOc1ccc(CNC(=O)c2ccc(-c3nc(CS(=O)(=O)c4ccccc4)c(C)o3)cc2)cc1 | inconclusive: 17.8 µM [inhibitor, partial curve, poor fit] | 
C=CCNC(=O)c1cc(-c2ccc(OCC)cc2)nc2ccccc12 | inconclusive: 25.1 µM [inhibitor, partial curve, poor fit] | 
Cc1ccc(-c2cnc(CCC(=O)N3CC(C(=O)N(C)C)Oc4ccccc43)o2)cc1C (stereo not drawn) | inactive | 
O=C(c1ccc(N2CCCOCC2)nc1)N1CCC(CCn2cccn2)CC1 | inconclusive: 28.2 µM [inhibitor, single point] | 
CN(C)c1nc2c(c(=O)[nH]1)CCN(Cc1ccc(Cl)c(F)c1)CC2 | active: 28.2 µM | 
Cc1cccc(C(=O)N/N=C/c2ccc(N(C)C)cc2)c1 | inconclusive: 39.8 µM [inhibitor, single point] | 
Cc1cc(C(=O)OCC(=O)NCC(C)C)c2ccccc2n1 | inconclusive: 28.2 µM [inhibitor, partial curve, poor fit] | 
Cc1ccc(NC(=O)C(NS(=O)(=O)c2ccc3c(c2)CCC(=O)N3)c2ccccc2)cc1C (stereo not drawn) | inconclusive: 15.8 µM [inhibitor, partial curve, poor fit] | 
O=C(Cn1cccc1-c1nc(-c2ccccc2)no1)Nc1ccccc1 | inactive | 
O=C(O)CN(/C=C/C(=O)C(F)(F)F)CC(=O)O | inactive | 
CN1C(=O)C(Cc2cnc[nH]2)NC1=S (stereo not drawn) | inconclusive: 22.4 µM [inhibitor, partial curve, poor fit] | 
C=CCOC(=O)C1=C(C)N=C2SC=C(CC(=O)NC3CC3)N2C1c1cc(C)ccc1C (stereo not drawn) | inconclusive: 17.8 µM [inhibitor, single point] | 
CCOC(=O)c1[nH]c2ccc(F)cc2c1NC(=O)CC | inconclusive: 25.1 µM [inhibitor, partial curve, poor fit] | 
COCCNC(=O)CCCn1c(=O)c2cc(OC)c(OC)cc2n(CC(=O)Nc2ccc(F)cc2)c1=O | inconclusive: 3.55 µM [inhibitor, full curve, poor fit] | 

SMILES | Potency | activity change, negative = inhibition
CC1c2ccsc2CCN1C(=O)c1n[nH]c(=O)c2ccccc12 (stereo not drawn) | inactive | 
CCCCCCn1nc(C(=O)OC(C)C(=O)NC(N)=O)c2ccccc2c1=O (stereo not drawn) | inactive | 
CCCN(CCC)C(=O)c1cc([N+](=O)[O-])cc2c1-c1ccc([N+](=O)[O-])cc1C2=C(C#N)C#N | inconclusive: 10 µM [inhibitor, partial curve, poor fit] | 
Fc1cc(Br)ccc1N=Cc1ccc2ncccc2c1 | inconclusive: 31.6 µM [inhibitor, single point] | 
CCCCOC(=O)c1ccc(NC(=O)c2cc3c(=O)n4cccc(C)c4nc3n2C)cc1 | inconclusive: 35.5 µM [inhibitor, single point] | 
O=C(NCc1ccnc2[nH]ccc12)c1cccc2[nH]ccc12 | inconclusive: 31.6 µM [inhibitor, partial curve, poor fit] | 
Cc1nn(C)c(C)c1S(=O)(=O)NC1CCc2nn(CC3CC3)c(=O)n2CC1 (stereo not drawn) | inactive | 
COc1ccc(OC)c(NC(=O)Cn2ccc3c(Cl)cccc32)c1 | inactive | 
O=C(Nc1ccccn1)C1CCN(c2nc3ccccc3o2)CC1 | inactive | 
COc1ccc(C(=O)N2CC[C@@H]3CN(S(C)(=O)=O)[C@@H]3C2)c(OC)n1 | inactive | 
Cc1ccc2[nH]c(C(=O)N3CCN(c4ccccc4)CC3)cc2c1 | inactive | 
C[C@@H](NC(=O)c1ccc(C#Cc2cccc(F)c2)cn1)C(C)(C)O | inconclusive: 14.1 µM [inhibitor, partial curve, poor fit] | 
COc1ccc2nc(N(Cc3cccnc3)C(=O)c3ccc4c(c3)OCCO4)sc2c1 |  | inconclusive: -31.7% [inhibitor]
COc1ccc([C@H](C)NC(=O)c2c(C)noc2-c2cccs2)cc1 | inconclusive: 35.5 µM [inhibitor, single point] | 
Cc1ccc(CNC(=O)C2Cn3cccc3C(=O)N2)o1 (stereo not drawn) | inactive | 
Cc1nn2c(=O)cc(COC(=O)c3cccc(NC(=O)c4cccs4)c3)nc2s1 | inconclusive: 35.5 µM [inhibitor, partial curve, poor fit] | 
O=C(CSC1=NC2(CCCCC2)N=C1c1cccs1)NCc1ccc(Cl)cc1 | inconclusive: 39.8 µM [inhibitor, single point] | 
CSc1ccccc1-c1nc(C2CCOC2)no1 (stereo not drawn) | active: 28.2 µM | 
COc1ccc2c(C)c(CC(=O)NCCCN3CCOCC3)c(=O)oc2c1 | inconclusive: 25.1 µM [inhibitor, partial curve, poor fit] | 
CN(Cc1nc(-c2cccnc2)no1)C(=O)CC1COCCN1 (stereo not drawn) | inconclusive: 15.8 µM [inhibitor, partial curve, poor fit] | 
CCOc1ccc(NS(=O)(=O)c2ccc3[nH]c4c(c3c2)CCCC4)cc1 | inconclusive: 28.2 µM [inhibitor, single point] | 
O=C(Cc1cccc(F)c1)Nc1cccc(-c2nnc3n2CCCC3)c1 | inactive | 
COc1ccc(C(=O)c2c(N)sc3c2CCN(C)C3)cc1 | inconclusive: 35.5 µM [inhibitor, partial curve, poor fit] | 

SMILES | Potency | activity change, negative = inhibition
CCOc1ccc(/C=C(\C#N)c2nc3ccccc3[nH]2)c(OCC)c1 | inconclusive: 28.2 µM [inhibitor, partial curve, poor fit] | 
O=C(N/N=C/c1ccc2c(c1)OCO2)C(=O)Nc1ccccc1 | inconclusive: 35.5 µM [inhibitor, single point] | 
Cc1c(C2=CCN(S(=O)(=O)c3ccc(CC(C)C)cc3)CC2)c2ccccc2n1CC(=O)N1CCCC1 | inconclusive: 17.8 µM [inhibitor, partial curve, poor fit] | 
CC(C)n1nc(OC(C)(C)C(=O)NC2CC2)c2cc(CN3CCOCC3)ccc21 | active: 31.6 µM | 
Cc1ccc(F)c(Nc2ncncc2-c2nc(-c3ccccc3)no2)c1 | inactive | 
CC(C)c1ccc(NC(=O)/C=C/c2ccccc2F)cc1 | inactive | 
CNC(=O)CCNC(=O)c1ccccc1-c1ncc(-c2ccc(F)cc2)o1 | inconclusive: 25.1 µM [inhibitor, partial curve, poor fit] | 
O=C(NC1(C(F)(F)F)N=C(c2ccccc2)N(Cc2ccco2)C1=O)c1ccccc1Cl (stereo not drawn) | inconclusive: 1.78 µM [inhibitor, full curve, poor fit] | 
COC(=O)c1cc(-c2ccco2)nc2c(Cl)cccc12 | inconclusive: 2.51 µM [inhibitor, full curve, poor fit] | 
CN(C)c1cccc(-c2cn(C)c(=O)n3cc(COc4ccnn4C)nc23)c1 | inconclusive: 31.6 µM [inhibitor, partial curve, poor fit] | 
Cc1nc2nc(SCC(=O)NCCc3ccccc3)nn2c(C)c1Cc1c(F)cccc1Cl | inconclusive: 35.5 µM [inhibitor, single point] | 
COCCNc1ncc(-c2ccnc(C)c2)c2c1OCC2 | inconclusive: 35.5 µM [inhibitor, partial curve, poor fit] | 
COc1ccc(Nc2cnc3ccc(-c4ccc(OC)c(OC)c4)nn23)cc1 | inactive | 
O=C(NCc1nnc2c(-c3nc(C4CC4)no3)cccn12)c1cccc(Cl)c1 | active: 28.2 µM | 
CCCc1nn(-c2ccccc2C)c(OC(C)=O)c1-c1ccc(NC(C)=O)cc1 | inactive | 
Clc1ccc(-c2nnc([C@H]3CCN(Cc4ccccc4)C3)o2)cc1 | inactive | 
O=C(N[C@H]1C[C@H]2C(=O)NC[C@@H](CCC(=O)N3CCN(c4ccccn4)CC3)N2C1)c1ccccc1 | active: 25.1 µM | 
COc1ccc(NC(=O)c2cc(-c3ccco3)nc3ccccc23)cc1S(=O)(=O)N1CCOCC1 | inconclusive: 25.1 µM [inhibitor, partial curve, poor fit] | 
COc1cc(OC)c(C(=O)Nc2cc(C(C)(C)C)on2)cc1OC | inactive | 
COc1ccccc1CNC(=O)C1CCCN(c2nnc(-n3c(C)ccc3C)s2)C1 (stereo not drawn) | inconclusive: 10 µM [inhibitor, partial curve, poor fit] | 
COc1ccc(CNC(=O)c2cnc3c(c2)N(C(=O)CCc2ccccc2)CCC3)cc1OC | inactive | 
O=C(c1ccccc1)N1CCC(c2nn(-c3ccc(Cl)cc3)c(=O)[nH]2)CC1 | inactive | 
